Measured values published in publication PMC4336329 (PLoS ONE, 2015).
Hit rate of the full screen: of about 310,000 compounds, about 2,200 (0.71%) showed an effect of 50% or more. The effect is printed as a negative number. The list shows a part of the results.

The molecules below were run against human ether-à-go-go-related gene (hERG) potassium channel (human, UniProt Q12809) (assay: primary screen, population patch clamp on CHO cells stably expressing hERG).
human ether-à-go-go-related gene (hERG) potassium channel, sequence (Q12809 whole entry, looked up): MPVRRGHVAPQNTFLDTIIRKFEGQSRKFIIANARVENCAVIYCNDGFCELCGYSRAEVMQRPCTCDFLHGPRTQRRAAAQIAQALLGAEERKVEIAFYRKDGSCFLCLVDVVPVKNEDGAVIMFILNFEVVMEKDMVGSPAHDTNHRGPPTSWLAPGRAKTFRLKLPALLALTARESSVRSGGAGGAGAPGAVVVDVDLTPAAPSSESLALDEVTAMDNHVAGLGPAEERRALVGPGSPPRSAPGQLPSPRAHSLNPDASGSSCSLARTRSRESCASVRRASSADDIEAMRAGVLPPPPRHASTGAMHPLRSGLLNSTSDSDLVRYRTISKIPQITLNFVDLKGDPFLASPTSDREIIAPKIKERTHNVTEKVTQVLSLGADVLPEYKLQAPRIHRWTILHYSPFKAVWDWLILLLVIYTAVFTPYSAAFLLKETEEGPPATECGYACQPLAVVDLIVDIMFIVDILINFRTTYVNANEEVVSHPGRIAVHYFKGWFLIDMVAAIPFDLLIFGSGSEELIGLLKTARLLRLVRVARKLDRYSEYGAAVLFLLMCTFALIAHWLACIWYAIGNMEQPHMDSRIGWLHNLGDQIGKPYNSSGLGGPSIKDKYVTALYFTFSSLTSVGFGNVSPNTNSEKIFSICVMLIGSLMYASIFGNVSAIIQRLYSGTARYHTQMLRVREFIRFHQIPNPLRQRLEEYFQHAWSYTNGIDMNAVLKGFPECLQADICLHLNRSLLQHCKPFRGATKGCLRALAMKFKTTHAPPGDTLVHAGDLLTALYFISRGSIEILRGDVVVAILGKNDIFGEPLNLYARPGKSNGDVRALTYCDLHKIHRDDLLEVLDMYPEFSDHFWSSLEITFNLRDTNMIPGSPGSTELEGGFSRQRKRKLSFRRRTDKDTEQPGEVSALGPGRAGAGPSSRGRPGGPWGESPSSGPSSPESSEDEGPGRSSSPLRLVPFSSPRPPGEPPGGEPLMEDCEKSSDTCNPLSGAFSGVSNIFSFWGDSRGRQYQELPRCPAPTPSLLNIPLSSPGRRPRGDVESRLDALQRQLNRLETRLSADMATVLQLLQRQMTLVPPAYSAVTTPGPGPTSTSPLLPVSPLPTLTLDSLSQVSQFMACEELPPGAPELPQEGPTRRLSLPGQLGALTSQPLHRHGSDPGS

SMILES | hERG current change (%, negative = inhibition) at 1uM
CC1CCCN(C(=O)/C(=C/c2ccco2)NC(=O)c2ccccc2)C1 (stereo not shown) | -4.9%
Cc1ccccc1NC(=O)c1cc(S(=O)(=O)N2CCCCC2)cs1 | -0.961%
COc1ccc(C(=O)CSc2nnc(CNC(=O)c3ccco3)n2C)cc1 | 4.04%
O=C(O)c1ccc(-n2cccc2)cc1O | 3.45%
CCCC(=O)Nc1ccc(-c2nc3ncccc3o2)cc1 | 10.1%
Cc1ccc(C(=O)Nc2ccc(O)cc2C(=O)O)cc1C | 10.7%
COC(=O)c1ccc(-c2nc(CN3CCN(Cc4cccc(C)c4)CC3)c(C)o2)cc1 | 8.93%
CCC(C)(C)C1CCc2[nH]nc(C(=O)NC3CCCC3)c2C1 (stereo not shown) | 11.2%
CC(=O)c1c(C)[nH]c(C(=O)Nc2cc(F)ccc2C)c1C | 20.5%
COC(=O)C1C(=O)N2CCCSC2=C(C#N)C1c1cccs1 (stereo not shown) | 11.8%
CC1(C)CC(=O)C2=C(C1)N(CCN1CCOCC1)C1=C(C(=O)CC(C)(C)C1)C2c1cccc(Cl)c1 | -17.5%
O=C(Nc1ccnn1C1CCN(C2CCCC2)CC1)c1ccccc1 | 13.3%
COc1ccc(Oc2ccc(NC(=O)c3ccccc3C)cc2)cc1 | 6.57%
Cc1nc(SCc2cccnc2)[nH]c(=O)c1C | 12.3%
CCc1ccc(NC(=O)CSc2nc(=O)n(CCN(C)C)c3c2CCCC3)cc1 | 3.35%
O=C(NCC(c1cccs1)N1CCOCC1)c1ccccc1NS(=O)(=O)c1ccc(Br)cc1 (stereo not shown) | -10.5%
Cc1ccc(C(=O)C(NC(=O)c2ccco2)N2CCOCC2)cc1 (stereo not shown) | 13.1%
Cc1nc2ccccc2c(=O)n1NS(C)(=O)=O | 11.5%
O=S(=O)(NC1=NCCC1)c1cccc(NS(=O)(=O)c2ccc(OC(F)(F)F)cc2)c1 | 7.7%
O=C(Nc1ccccc1OC(F)F)c1ccc(S(=O)(=O)N2CCCC2)cc1 | 9.59%
CCOc1cc(CNCc2ccncc2)cc(Cl)c1OC.Cl | 20.1%
COc1cc(Cl)c(C)cc1NC(=O)c1cc(S(=O)(=O)N(C)C)ccc1N1CCCC1 | 6.5%

SMILES | hERG current change (%, negative = inhibition) at 1uM
O=C(N/N=C/c1ccc2c(c1)OCO2)C(=O)Nc1ccc2ccccc2c1 | 5.56%
COc1ccc(CNC(=O)Nc2ccc(C)c(C)c2)cc1 | 9.9%
Nc1nnc(-c2ccccc2)c(-c2ccccc2)n1 | 3.06%
CCc1nc2c(c(=O)[nH]1)C1(CCCC1)Cc1ccccc1-2 | 15.1%
CCN1Cc2c(/C=C/c3ccccc3)nc3ccc(OC)cc3c2N(c2cccc(Cl)c2)C1 | 12%
CCC(C)c1c(O)nc(SCC(=O)Nc2ccccc2)[nH]c1=O (stereo not shown) | 13%
Clc1ccc(-c2cnn3c(-c4ccncc4)ccnc23)cc1 | 1.39%
O=C(CCN1CCCCO1)N1CCCC(Nc2ccc(F)c(F)c2)C1 (stereo not shown) | 3.72%
CCOC(=O)C1CCCCN1C(=O)c1oc2c(Cl)cc(C)cc2c1C (stereo not shown) | 14.2%
COc1ccc(C(=O)COC(=O)CCCn2c(=O)oc3ccccc32)cc1 | -11.2%
O=C(CN1CCC(O)(c2cccc(F)c2)CC1)NCCc1c[nH]c2ccccc12 | 1.69%
CCOc1ccc(CCNC(=O)COC(=O)c2cccnc2SC)cc1OCC | 1.62%
CN(CC(=O)Nc1ccc(N2CCOCC2)cc1)C(=O)CCCOc1ccc(Cl)cc1Cl | 8.61%
CC(=O)c1sc(NC(=O)c2cccnc2Cl)nc1C | -1.52%
O=C(O)CCC(=O)OCc1c(-c2ccccc2)ncc2ccccc12 | 13.8%
CC(C)NC[C@H](O)COc1ccc(CC(N)=O)cc1 | 14.6%
Cc1cc(Br)ccc1NC(=O)CNC(=O)Cc1ccc(S(=O)(=O)N2CCOCC2)s1 | -8.88%
CCC(=NCCCN(C)C)c1c(O)n(-c2ccc(OC)cc2)c(=O)[nH]c1=O | 2.1%
N#Cc1cnc(SCC(=O)c2ccccc2)nc1N | 2.71%
O=C(Nc1nccs1)c1ccc(COc2ccc(F)cc2)o1 | 5.48%
CCc1cccc(CC)c1NC(=O)COC(=O)c1ccc(F)c(S(=O)(=O)N(CC)CC)c1 | -1.06%
COc1ccc(-n2c(=S)[nH]c3cc(C(=O)NCCCN4CCOCC4)ccc3c2=O)c(OC)c1.Cl | 7.69%

SMILES | hERG current change (%, negative = inhibition) at 1uM
COC(=O)C1CCN(C2=C(NS(=O)(=O)c3ccc(Cl)cc3)C(=O)c3ccccc3C2=O)CC1 | 2.44%
O=C(CS(=O)(=O)c1cn(CC(=O)N2CCOCC2)c2ccccc12)NCc1ccccc1 | 10.6%
COc1ccc(-c2nc(N)ncc2-c2ccc(OC)c(OC)c2)c(O)c1 | 3.87%
CN(C)c1ccc(/C=C2\SC(=O)N(CC(O)Cn3c4ccccc4c4ccccc43)C2=O)cc1 (stereo not shown) | 10.1%
Cc1ccccc1NCCC(=O)Nc1ccc(F)cc1 | 4.12%
CCCNC(=O)C1CCN(S(=O)(=O)c2ccc3[nH]c(=O)ccc3c2)CC1 | 11.4%
O=S(=O)(c1ccc2c(c1)OCCCO2)N1CCNCC1 | 4.19%
Cc1cccc(N2C(=O)CC(N3CCC(c4nc5ccccc5[nH]4)CC3)C2=O)c1 (stereo not shown) | 7.14%
COc1ccc([C@H]2/C=C\CN(S(C)(=O)=O)[C@@H](C)C(=O)N2Cc2ccc(F)cc2)cc1 | 6.06%
Cn1c(=O)c2ccccc2n(Cc2cccc(F)c2)c1=O | 12.1%
CCn1ncc(CN2CCCC(C(=O)c3cccc(OC(C)C)c3)C2)c1C (stereo not shown) | 8.61%
COc1ccc(C2c3c(oc4ccccc4c3=O)C(=O)N2CCCN2CCOCC2)cc1 (stereo not shown) | 7.58%
CCOc1ccc(OCC(O)CN2CCc3ccccc3C2)cc1.Cl (stereo not shown) | -45.1%
CC1=NN(C(=O)c2c(Br)cnn2C)C(O)(C(F)(F)F)C1 (stereo not shown) | 0.959%
Cc1ccc(Sc2nc(-c3ccccc3)nnc2C(F)(F)F)cc1 | 11.8%
COc1ccc(C)cc1N(CC(=O)N1CCCCCC1)S(C)(=O)=O | 14.5%
COc1ccc2[nH]cc(CCNS(=O)(=O)c3ccc(F)cc3)c2c1 | 9.73%
Cc1sc2nc(COC(=O)C(NC(=O)c3ccc(Cl)cc3Cl)C(C)C)[nH]c(=O)c2c1C (stereo not shown) | 3.57%
CC1CCCCC1NC(=S)Nc1ccc(SC(F)F)cc1 (stereo not shown) | -0.822%
COc1ccccc1Nc1nc(NCc2ccco2)nc(N)c1[N+](=O)[O-] | 13.1%
CN(C)S(=O)(=O)c1cccc(NC(=O)C2Cc3ccccc3CN2C(=O)c2ccccc2)c1 (stereo not shown) | 15.3%
O=C(c1cc(COc2ccc3ncccc3c2)on1)N1CCC[C@H]1CO | 11.4%

SMILES | hERG current change (%, negative = inhibition) at 1uM
CCOC(=O)C1CCCN(C(=O)c2ccc(NC(=O)CC3SC(N4CCCC4)=NC3=O)cc2)C1 (stereo not shown) | 1.52%
O=C(CCN1C(=O)/C(=C/c2ccc(F)cc2)SC1=S)Nc1cccnc1 | 11.2%
COc1ccc(CCNC(=O)C2CCCN(S(=O)(=O)c3ccc(F)cc3)C2)cc1 (stereo not shown) | 12.8%
COc1ccc(N2C(=O)C3CC(C)=C(C)CC3C2=O)c(OC)c1 (stereo not shown) | 14.6%
O=C(CCC1CCCN(C(=O)CC2=CCCCC2)C1)N1CCN(c2ccccn2)CC1 (stereo not shown) | 17.7%
O=C(NN=C1C2CC3CC(C2)CC1C3)c1cc(Cl)ccc1O | -4.53%
COc1ccc(-n2c(Cc3cccn3C)nnc2SCC(=O)Nc2ccc(C(C)=O)cc2)cc1 | 7.92%
Cc1cc2c(cc1C)C(c1ccccc1F)CC(=O)N2 (stereo not shown) | 15.6%
O=C(/C=C/c1cccs1)Nc1ccc([N+](=O)[O-])cc1 | 10.4%
COc1ccc(Br)cc1C(=O)NC(=S)Nc1ccc(Cl)c(C(=O)O)c1 | 18%
Cc1ccc(C)c2nc(N3CCCC3)c(C#N)cc12 | 8.96%
CC1(C)CC(=O)C2=C(C1)N(Cc1ccc(F)cc1)C(=O)C2(NC(=O)c1cccnc1)C(F)(F)F (stereo not shown) | 5.07%
Cc1cccc(N(Cc2cc(=O)[nH]c3ccccc23)C(=O)C(C)C)c1 | 10.3%
Cc1ccc(S(=O)(=O)CC(=O)Nc2ccccn2)cc1 | 13.8%
CCOC(=O)N1CCN(C(=O)CCSCCc2ccncc2)CC1 | 7.19%
COCCNC(=O)c1ccccc1NC(=O)c1ccccc1SC | 7.19%
Cn1cc(S(=O)(=O)CC(=O)N2CCCc3ccccc32)c2ccccc21 | 2.59%
CC(C)NOC(=O)c1ccc(Cl)cc1 | -12.8%
Nc1ccc(C(=O)O)cc1S(=O)(=O)O | 9.19%
Oc1c(Br)cc(Br)cc1C=Nc1ccc2c(c1)OCCO2 | 12.2%
Cc1nn(C)cc1CNC(=O)c1cnn2c(C(F)F)cc(C3CC3)nc12 | 2.77%
O=C1/C(=C/c2ccccc2)NC(=S)N1C(c1ccccc1)c1ccccc1 | 7.93%
